In the supplement of paper PMC7125110:
± gives the standard error. This sample is rich in variants without activity.

B1: glmS ribozyme (parent)
chain: AUAAAAGCGCCAGAACUACAGAAAUGUAGUUGACGAGGAGGAGGUUUAUCGAAUUUUCGGCGGAUGCCUCCAAA

Assays:
Conditions in all cases: with glucosamine-6-phosphate
[1] = variants of: B1; test: self-cleavage kobs at 40 uM GlcN6P; higher = faster cleavage; RNA array
Procedure, shortened: (§1)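 Tiles bearing barcoded ribozyme variants, transcribed in situ by E. coli RNA polymerase on sequenced MiSeq chips, were imaged over ~14 h at 37 °C using a hybridised Cy3 probe. Glucosamine-6-phosphate was supplied at 40 μM to 10 mM in HEPES/KCl/Mg(OAc)2 buffer. kobs came from one- or two-exponential decay fits to normalised per-tile medians, and weighted Michaelis–Menten fits then provided kcat and KM.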

[2] = variants of: B1; test: self-cleavage kobs at 2500 uM GlcN6P; higher = faster cleavage; RNA array
Procedure, shortened: as §1

[3] = variants of: B1; test: self-cleavage kobs at 10000 uM GlcN6P; higher = faster cleavage; RNA array
Procedure, shortened: as §1

[4] = variants of: B1; test: self-cleavage kobs at 640 uM GlcN6P; higher = faster cleavage; RNA array
Procedure, shortened: as §1

[5] = variants of: B1; test: self-cleavage kobs at 160 uM GlcN6P; higher = faster cleavage; RNA array
Procedure, shortened: as §1

| Variant | self-cleavage kobs at 40 uM GlcN6P [1] | self-cleavage kobs at 2500 uM GlcN6P [2] | self-cleavage kobs at 10000 uM GlcN6P [3] | self-cleavage kobs at 640 uM GlcN6P [4] | self-cleavage kobs at 160 uM GlcN6P [5] |
| --- | --- | --- | --- | --- | --- |
| AUAAAAGCGCGCGAACUACAGAAAUGUAGUUGACGAGGAGGAGGUUUAUCGAAUUUUCGGCGGAUGCCUCCAAA | < 1e-05 s⁻¹ | 6.61e-05 ± 1.2e-05 s⁻¹ | 0.00011 ± 1.3e-05 s⁻¹ |  |  |
| AUAAAAGCGCAAGAACUACAGAAAUGUAGUUGAGGAGAAGGAUGUUUAUCGAAUGUUCGGCGAAUGCCUCCAAA | < 1e-05 s⁻¹ | < 1e-05 s⁻¹ | < 1e-05 s⁻¹ | < 1e-05 s⁻¹ | < 1e-05 s⁻¹ |
| AUAAAAGCGCAAGAACUACAGAAAUGUAGUUGACGAGGAGGAGGUUUUUCGAAUUUUCGGCGGAUGCCUCCAAA | < 1e-05 s⁻¹ |  |  |  | < 1e-05 s⁻¹ |
| AUAAAAGCGCGAGAACUACAGAAAUGUAGUUGACCAUGAGGAGGUUUAUCGAAUUUUCGGCUGAUGCCUCCAAA | < 1e-05 s⁻¹ |  | < 1e-05 s⁻¹ | < 1e-05 s⁻¹ | < 1e-05 s⁻¹ |
| AUAAAAGCGUCAGAACUACAGAAAUGUAGUUGACGAGGAGGAGCUUUAUCGAAUUUUCGGCGGAUGCCUCCAAA | < 1e-05 s⁻¹ | < 1e-05 s⁻¹ | < 1e-05 s⁻¹ | < 1e-05 s⁻¹ | < 1e-05 s⁻¹ |
| AUAAAAGCGCGAGAAAUACAGAAAUGUAGUUGACGAGCAGGAGGUUUAUCGAAUUUUCGGCGGAUGCCUCCAAA | < 1e-05 s⁻¹ |  |  |  |  |
| AUAAAAGCGCGAGAACUACAGAAAUGUAGUUGACGAGGAGUGGGUUUAUCGAAUUUUCGGCGGAUGCCUCCAAA | < 1e-05 s⁻¹ | < 1e-05 s⁻¹ |  |  |  |
| AUAAAAGCGUCAGAACUACAGAAAUGUAGUUGACGAGGAGGAGGUGUAUCGAAUUUUCGGCGGAUGCCUUCAAA | < 1e-05 s⁻¹ |  |  |  |  |
| AUAAAAGCGCAAGAACUACAGAAAUGUAGUUGACGAGGAGGAGGUUUUUCGUAUUUUCGGCGGAUGCCUCCAAA | < 1e-05 s⁻¹ |  | < 1e-05 s⁻¹ |  |  |
| AUAAAAGCGCUAGAACUACAGAAAUGUAGUUGACGAGGAGGAGGUUUGUCGAAUUUUCGGCGGAUGGCUCCAAA | < 1e-05 s⁻¹ | < 1e-05 s⁻¹ |  |  |  |
| AUAAAAGCGCGAGAACUACAGAAAUGUAGUCGACGAGGAGGAGGUUUAUCGAAUUUUCGGCGGAUGCCUCCAAA | < 1e-05 s⁻¹ |  |  | < 1e-05 s⁻¹ |  |
| AUAAAAGCGCGAGAACUACAGAAAUGUAGUUGACGAGGAGGAGGUUUAUCGAAUUUGCGGCGGAUGCCUCCAAA | < 1e-05 s⁻¹ | < 1e-05 s⁻¹ | < 1e-05 s⁻¹ |  | < 1e-05 s⁻¹ |
| AUAAAAGCGCGAGAACUACAGAAAUGUAGUUCACGAGGAGGAGAUUUAUCGAAUAUUCGGUGGAUGCCUCCAAA | < 1e-05 s⁻¹ |  | < 1e-05 s⁻¹ |  |  |
| AUAAAAGCGCAAGAACUACAGAAAUGUAGUUGACGAGCAGGAGGUUUAUCGAAUUUUCGGCGGAUUCCUCCAAA | < 1e-05 s⁻¹ |  | < 1e-05 s⁻¹ | < 1e-05 s⁻¹ |  |
| AUAAAAGCGUCAGAACUACAGAAAUGUAGUUGACGAGGAUGAGGUUUUUCGAAUUUUCGGCGGAUGCCUCCAAA | < 1e-05 s⁻¹ |  | < 1e-05 s⁻¹ | < 1e-05 s⁻¹ |  |
| AUAAAAGCGUCAGAACUACAGAAAUGUAGUAGACGAGUAGGAGGUUUAUCGAAUUUUCGGCGGAUGCCUCCAAA | < 1e-05 s⁻¹ |  | < 1e-05 s⁻¹ | < 1e-05 s⁻¹ |  |

| Variant | self-cleavage kobs at 40 uM GlcN6P [1] | self-cleavage kobs at 2500 uM GlcN6P [2] | self-cleavage kobs at 10000 uM GlcN6P [3] | self-cleavage kobs at 640 uM GlcN6P [4] | self-cleavage kobs at 160 uM GlcN6P [5] |
| --- | --- | --- | --- | --- | --- |
| AUAAAAGCGCGAGAACUACAGAAAUGUAGUUGAGGAGGAGGAGGUUUAUAGAAUUUUCGGCUGAUGCCUCCAAA | < 1e-05 s⁻¹ |  | < 1e-05 s⁻¹ |  |  |
| AUAAAAGCGCGAGAAAUACAGAAAUGUAGUUGUCGAGGAGGAGGUUUAUCGAAUUUUGGGCGGAUGCCUCCAAA | < 1e-05 s⁻¹ |  |  |  |  |
| AUAAAAGCGCGAGAACUACAGAAAUGUAGUUUACGGGAAGGAGGUUUAUCGAGUUUUCGGCGGAUGCCUCCAAA | < 1e-05 s⁻¹ |  |  |  |  |
| AUAAAAGCGUCAGAACUACAGAAAUGUAGUUGACGAGGAGGAUGUUUAUCGAAUUUUCGGCGGACGCCUCCAAA | < 1e-05 s⁻¹ |  | < 1e-05 s⁻¹ |  |  |
| AUAAAAGCGCGAGAACUACAGAAAUGUAGUUGACGAGGAGGAGGUUUAUCGAAUUUUCGACGGAUGCCUCCAAA | < 1e-05 s⁻¹ | < 1e-05 s⁻¹ | < 1e-05 s⁻¹ |  | < 1e-05 s⁻¹ |
| AUAAAAGCGCGAGAACUACAGAAAUGUAGUUGACGAGGAGGAGGUUUAUCGAAUUUUCGCCGGAUGCCUCCAAA | < 1e-05 s⁻¹ |  | < 1e-05 s⁻¹ | < 1e-05 s⁻¹ | < 1e-05 s⁻¹ |
| AUAAAAGCGCAAGAACUACAGAAAUGUAGUUGACGAGGAGGAGGUUUAUCGAAUUUUCGGCGGAUGCCGCCAAA | 5.85e-05 ± 9.2e-06 s⁻¹ |  | 5.17e-05 ± 1.1e-05 s⁻¹ | 0.000166 ± 4.5e-05 s⁻¹ | 0.000398 ± 0.00018 s⁻¹ |
| AUAAAAGCGCAAGAACUACAGAAAUGUAGUUGACGAGGAAGAGGUUUAUCGAAUUUUCGGCGGAUGCCUCCAAA | < 1e-05 s⁻¹ |  |  |  |  |
| AUAAAAGCGCUAGUACUACAGAAAUGUAGUUGACGAGGAGGAUGUUUAUCGAAAUUUCGGCGAAUGCCUCCAAA | < 1e-05 s⁻¹ | < 1e-05 s⁻¹ |  |  |  |
| AUAAAAGCGCAAGAACUACAGAAAUGUAGUUGACGAGGAGGAGGUUUAUCGAAUUUUCGGCGGAUGCAUCCAAA | < 1e-05 s⁻¹ |  |  |  |  |
| AUAAAAGCGUCAGAACUACAGAAAUGUAGUUAACGAGGAGGAGGUUUAUCGAAUUUUCGGCGGAUGCCUUCAAA | < 1e-05 s⁻¹ |  |  |  |  |
| AUAAAAGCGUCAGAACUACAGAAAUGUAGUUGACGAGGAGCAGGUUUAUCGAAUUUUCGGCGGAUGCCUCCAAA | < 1e-05 s⁻¹ |  | < 1e-05 s⁻¹ |  | < 1e-05 s⁻¹ |
| AUAAAAGCGCUAGAACUACAGAAAUGUAGUUGACGAGGAGGAGGUUUAUGGAAUUUUCGGCGGAAGCAUCCAAA | 8.61e-05 ± 2.8e-05 s⁻¹ |  |  |  |  |
| AUAAAAGCGCAAGAACUACAGAAAUGUAGAUAACGAGGAGGAGGUUUAUAGAAUUUUCGGCGGAUGCCUCCAAA | < 1e-05 s⁻¹ |  |  |  |  |
| AUAAAAGCGCUAGAACUACAGAAAUGUAGUUGACGAGGAGGAGGUUUAUCGAAUUUUGGGCGGAUGUCGCCAAA | 3.48e-05 ± 1.2e-05 s⁻¹ |  | 6.72e-05 ± 1.3e-05 s⁻¹ |  |  |
| AUAAAAGCGUCAGAUCUACAGAAAUGUAGUUGACGAGGAGGAGGUUUAUCGAAUUUUCGGCGGAUGACUCCAAA | < 1e-05 s⁻¹ |  |  |  |  |
